Where a chain is given by its changes, count along the chain named. The list shows a part of the results.
B1: ACUCCGU (DNA:RNA)
RNA: GGGAGACCGGAAUUCAGAUUGUCCACUCCGUUUAAAUCCCGUCGUAGCCACCA
DNA 1: CAATCTGAATTCCGGTCTCCC
DNA 2: TGGTGGCTACGACGGGATT
B2: CGUGGUC (DNA:RNA)
RNA: B1 RNA with A25C, C26G, C28G, C29G, G30U, U31C
DNA 1: CAATCTGAATTCCGGTCTCCC
DNA 2: TGGTGGCTACGACGGGATT
B3: AUGCAGU (DNA:RNA)
RNA: B1 RNA with C26U, U27G, C29A
DNA 1: CAATCTGAATTCCGGTCTCCC
DNA 2: TGGTGGCTACGACGGGATT
B4: CCUACAA (DNA:RNA)
RNA: B1 RNA with A25C, C28A, G30A, U31A
DNA 1: CAATCTGAATTCCGGTCTCCC
DNA 2: TGGTGGCTACGACGGGATT
B5: CACUCUC (DNA:RNA)
RNA: B1 RNA with A25C, C26A, U27C, C28U, G30U, U31C
DNA 1: CAATCTGAATTCCGGTCTCCC
DNA 2: TGGTGGCTACGACGGGATT
B6: GAAGCAU (DNA:RNA)
RNA: B1 RNA with A25G, C26A, U27A, C28G, G30A
DNA 1: CAATCTGAATTCCGGTCTCCC
DNA 2: TGGTGGCTACGACGGGATT
B7: UAUACUA (DNA:RNA)
RNA: B1 RNA with A25U, C26A, C28A, G30U, U31A
DNA 1: CAATCTGAATTCCGGTCTCCC
DNA 2: TGGTGGCTACGACGGGATT
B8: UUUCUUC (DNA:RNA)
RNA: B1 RNA with A25U, C26U, C29U, G30U, U31C
DNA 1: CAATCTGAATTCCGGTCTCCC
DNA 2: TGGTGGCTACGACGGGATT
B9: GCGGACC (DNA:RNA)
RNA: B1 RNA with A25G, U27G, C28G, C29A, G30C, U31C
DNA 1: CAATCTGAATTCCGGTCTCCC
DNA 2: TGGTGGCTACGACGGGATT
B10: UACGGUA (DNA:RNA)
RNA: GGGAGACCGGAAUUCAGAUUGUCCUACGGUAUUAAAUCCCGUCGUAGCCACCA
DNA 1: CAATCTGAATTCCGGTCTCCC
DNA 2: TGGTGGCTACGACGGGATT
B11: GCUAGAC (DNA:RNA)
RNA: B1 RNA with A25G, C28A, C29G, G30A, U31C
DNA 1: CAATCTGAATTCCGGTCTCCC
DNA 2: TGGTGGCTACGACGGGATT
B12: AUGGUAA (DNA:RNA)
RNA: B10 RNA with U25A, A26U, C27G, G29U, U30A
DNA 1: CAATCTGAATTCCGGTCTCCC
DNA 2: TGGTGGCTACGACGGGATT
B13: GUGGAUA (DNA:RNA)
RNA: B10 RNA with U25G, A26U, C27G, G29A
DNA 1: CAATCTGAATTCCGGTCTCCC
DNA 2: TGGTGGCTACGACGGGATT
B14: UCAUAUC (DNA:RNA)
RNA: B10 RNA with A26C, C27A, G28U, G29A, A31C
DNA 1: CAATCTGAATTCCGGTCTCCC
DNA 2: TGGTGGCTACGACGGGATT
B15: AGUUCCG (DNA:RNA)
RNA: B1 RNA with C26G, C28U, G30C, U31G
DNA 1: CAATCTGAATTCCGGTCTCCC
DNA 2: TGGTGGCTACGACGGGATT
B16: UCCAUCG (DNA:RNA)
RNA: B10 RNA with A26C, G28A, G29U, U30C, A31G
DNA 1: CAATCTGAATTCCGGTCTCCC
DNA 2: TGGTGGCTACGACGGGATT
B17: AUGGUUC (DNA:RNA)
RNA: B10 RNA with U25A, A26U, C27G, G29U, A31C
DNA 1: CAATCTGAATTCCGGTCTCCC
DNA 2: TGGTGGCTACGACGGGATT
B18: AGACAAA (DNA:RNA)
RNA: B1 RNA with C26G, U27A, C29A, G30A, U31A
DNA 1: CAATCTGAATTCCGGTCTCCC
DNA 2: TGGTGGCTACGACGGGATT
B19: GAAGCUA (DNA:RNA)
RNA: B10 RNA with U25G, C27A, G29C
DNA 1: CAATCTGAATTCCGGTCTCCC
DNA 2: TGGTGGCTACGACGGGATT
B20: GUGUAUA (DNA:RNA)
RNA: B10 RNA with U25G, A26U, C27G, G28U, G29A
DNA 1: CAATCTGAATTCCGGTCTCCC
DNA 2: TGGTGGCTACGACGGGATT
B21: AAAGUGU (DNA:RNA)
RNA: B1 RNA with C26A, U27A, C28G, C29U
DNA 1: CAATCTGAATTCCGGTCTCCC
DNA 2: TGGTGGCTACGACGGGATT
B22: CGGCGGG (DNA:RNA)
RNA: B1 RNA with A25C, C26G, U27G, C29G, U31G
DNA 1: CAATCTGAATTCCGGTCTCCC
DNA 2: TGGTGGCTACGACGGGATT
B23: CGACGGC (DNA:RNA)
RNA: B1 RNA with A25C, C26G, U27A, C29G, U31C
DNA 1: CAATCTGAATTCCGGTCTCCC
DNA 2: TGGTGGCTACGACGGGATT
B24: GGUCCUG (DNA:RNA)
RNA: B1 RNA with A25G, C26G, G30U, U31G
DNA 1: CAATCTGAATTCCGGTCTCCC
DNA 2: TGGTGGCTACGACGGGATT
B25: GACAAGG (DNA:RNA)
RNA: B10 RNA with U25G, G28A, G29A, U30G, A31G
DNA 1: CAATCTGAATTCCGGTCTCCC
DNA 2: TGGTGGCTACGACGGGATT
B26: ACUGCCG (DNA:RNA)
RNA: B1 RNA with C28G, G30C, U31G
DNA 1: CAATCTGAATTCCGGTCTCCC
DNA 2: TGGTGGCTACGACGGGATT
B27: UGGACUU (DNA:RNA)
RNA: B1 RNA with A25U, C26G, U27G, C28A, G30U
DNA 1: CAATCTGAATTCCGGTCTCCC
DNA 2: TGGTGGCTACGACGGGATT
B28: AAAGCCA (DNA:RNA)
RNA: B10 RNA with U25A, C27A, G29C, U30C
DNA 1: CAATCTGAATTCCGGTCTCCC
DNA 2: TGGTGGCTACGACGGGATT
B29: CAGAUUG (DNA:RNA)
RNA: B10 RNA with U25C, C27G, G28A, G29U, A31G
DNA 1: CAATCTGAATTCCGGTCTCCC
DNA 2: TGGTGGCTACGACGGGATT
B30: GCCUCGG (DNA:RNA)
RNA: B1 RNA with A25G, U27C, C28U, U31G
DNA 1: CAATCTGAATTCCGGTCTCCC
DNA 2: TGGTGGCTACGACGGGATT
B31: CAACAAG (DNA:RNA)
RNA: B1 RNA with A25C, C26A, U27A, C29A, G30A, U31G
DNA 1: CAATCTGAATTCCGGTCTCCC
DNA 2: TGGTGGCTACGACGGGATT

Each binder was assayed against T1, RBFOX1 RRM RbFoxmut (Fox-RRM*) (Homo sapiens, UniProt Q9NWB1 109-208, R118D;E147R;N151S;E152T) (assay: EMSA; HiTS-Eq, 1 nM pool, 10 min; buffer printed only for the single-RNA assays: 10 mM Tris pH 7.5, 150 mM NaCl, 3.4 mM EDTA, 0.001% NP-40, 30 C). Settings: tags: His6 N-terminal (pET28a); label: 5' 32P.
T1 sequence: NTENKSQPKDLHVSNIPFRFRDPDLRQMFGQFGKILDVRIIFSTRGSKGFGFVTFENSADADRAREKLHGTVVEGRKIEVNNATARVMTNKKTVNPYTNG
Method in brief: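 Relative association constants, normalised to the cognate motif, were derived by comparing read counts of each RNA species with those of the control reaction. The RNA sequenced was the free fraction, separated by 8% native PAGE after a 10 min equilibration in 50 µL of 1 nM 5′-radiolabelled RNA (7 randomized nucleotides) with increasing concentrations of purified wild-type or mutant RbFox RRM.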

Binder	binding signal
B1	0.102 KA relative to UGCAUGU
B2	0.273 KA relative to UGCAUGU
B3	0.0865 KA relative to UGCAUGU
B4	0.0559 KA relative to UGCAUGU
B5	0.0672 KA relative to UGCAUGU
B6	0.112 KA relative to UGCAUGU
B7	0.0619 KA relative to UGCAUGU
B8	0.0439 KA relative to UGCAUGU
B9	0.062 KA relative to UGCAUGU
B10	0.106 KA relative to UGCAUGU
B11	0.108 KA relative to UGCAUGU
B12	0.154 KA relative to UGCAUGU
B13	0.129 KA relative to UGCAUGU
B14	0.0708 KA relative to UGCAUGU
B15	0.103 KA relative to UGCAUGU
B16	0.0984 KA relative to UGCAUGU

Binder	binding signal
B17	0.179 KA relative to UGCAUGU
B18	0.0626 KA relative to UGCAUGU
B19	0.0968 KA relative to UGCAUGU
B20	0.166 KA relative to UGCAUGU
B21	0.122 KA relative to UGCAUGU
B22	0.0801 KA relative to UGCAUGU
B23	0.11 KA relative to UGCAUGU
B24	0.167 KA relative to UGCAUGU
B25	0.0473 KA relative to UGCAUGU
B26	0.1 KA relative to UGCAUGU
B27	0.0671 KA relative to UGCAUGU
B28	0.101 KA relative to UGCAUGU
B29	0.225 KA relative to UGCAUGU
B30	0.14 KA relative to UGCAUGU
B31	0.0693 KA relative to UGCAUGU

From paper PMC9911399, “Two distinct binding modes provide the RNA-binding protein RbFox with extraordinary sequence specificity”
